# Measured values published in the supplement of paper PMC8728848.
# Some of the results follow.
# Tests used:
# Assay in all cases: glycan array binding signal (z-score within array); higher = stronger binding
# Details in all cases: glycan notation: IUPAC condensed, linker removed
# [1] = target: Neu5Ac(a2-3)Gal(b1-4)[Fuc(a1-3)]GlcNAc(b1-3)Gal(b1-4)[Fuc(a1-3)]GlcNAc(b1-3)Gal(b1-4)[Fuc(a1-3)]GlcNAc
# How it was run: (§1)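 The binding signal is a Z-score computed within each array and averaged over linkers. Arrays of the same protein sequence at different concentrations or buffers were also averaged together. Data originate from 3228 arrays in the Consortium for Functional Glycomics database, kept only where the protein sequence was available.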
# [2] = target: Neu5Ac(a2-3)Gal(b1-4)[Fuc(a1-3)]GlcNAc(b1-6)[Gal(b1-3)]GalNAc
# How it was run: as §1
# [3] = target: Neu5Ac(a2-3)Gal(b1-4)[Fuc(a1-3)]GlcNAc(b1-6)[Neu5Ac(a2-3)Gal(b1-3)]GalNAc
# How it was run: as §1
# [4] = target: Neu5Ac(a2-3)Gal(b1-4)[Fuc(a1-3)]GlcNAc6S
# How it was run: as §1
# [5] = target: Neu5Ac(a2-3)Gal6S(b1-4)GlcNAc
# How it was run: as §1
# [6] = target: Neu5Ac(a2-3)Gal6S(b1-4)[Fuc(a1-3)]GlcNAc
# How it was run: as §1
# [7] = target: Neu5Ac(a2-3)GalNAc
# How it was run: as §1
# [8] = target: Neu5Ac(a2-3)GalNAc(b1-4)GlcNAc
# How it was run: as §1
# [9] = target: Neu5Ac(a2-3)[GalNAc(b1-4)]Gal(b1-4)Glc
# How it was run: as §1
# [10] = target: Neu5Ac(a2-3)[GalNAc(b1-4)]Gal(b1-4)GlcNAc
# How it was run: as §1
# [11] = target: Neu5Ac(a2-3)[Neu5Ac(a2-6)]GalNAc
# How it was run: as §1
# [12] = target: Neu5Ac(a2-6)Gal
# How it was run: as §1
# [13] = target: Neu5Ac(a2-6)Gal(b1-4)Glc
# How it was run: as §1
# [14] = target: Neu5Ac(a2-6)Gal(b1-4)GlcNAc
# How it was run: as §1
# [15] = target: Neu5Ac(a2-6)Gal(b1-4)GlcNAc(b1-2)Man(a1-3)Man(b1-4)GlcNAc(b1-4)GlcNAc
# How it was run: as §1
# [16] = target: Neu5Ac(a2-6)Gal(b1-4)GlcNAc(b1-2)Man(a1-3)[Gal(b1-4)GlcNAc(b1-2)Man(a1-6)]Man(b1-4)GlcNAc(b1-4)GlcNAc
# How it was run: as §1
# [17] = target: Neu5Ac(a2-6)Gal(b1-4)GlcNAc(b1-2)Man(a1-3)[GlcNAc(b1-2)Man(a1-6)]Man(b1-4)GlcNAc(b1-4)GlcNAc
# How it was run: as §1
# [18] = target: Neu5Ac(a2-6)Gal(b1-4)GlcNAc(b1-2)Man(a1-3)[GlcNAc(b1-2)Man(b1-4)GlcNAc(b1-2)Man(a1-6)]Man(b1-4)GlcNAc(b1-4)GlcNAc
# How it was run: as §1
# [19] = target: Neu5Ac(a2-6)Gal(b1-4)GlcNAc(b1-2)Man(a1-3)[Man(a1-6)]Man(b1-4)GlcNAc(b1-4)GlcNAc
# How it was run: as §1
# [20] = target: Neu5Ac(a2-6)Gal(b1-4)GlcNAc(b1-2)Man(a1-3)[Neu5Ac(a2-6)Gal(b1-4)GlcNAc(b1-2)Man(a1-6)]Man(b1-4)GlcNAc(b1-4)GlcNAc
# How it was run: as §1
# [21] = target: Neu5Ac(a2-6)Gal(b1-4)GlcNAc(b1-2)Man(a1-6)Man(b1-4)GlcNAc(b1-4)GlcNAc
# How it was run: as §1
# [22] = target: Neu5Ac(a2-6)Gal(b1-4)GlcNAc(b1-2)Man(a1-6)[Gal(b1-4)GlcNAc(b1-2)Man(a1-3)]Man(b1-4)GlcNAc(b1-4)GlcNAc
# How it was run: as §1
# [23] = target: Neu5Ac(a2-6)Gal(b1-4)GlcNAc(b1-2)Man(a1-6)[GlcNAc(b1-2)Man(a1-3)]Man(b1-4)GlcNAc(b1-4)GlcNAc
# How it was run: as §1
# [24] = target: Neu5Ac(a2-6)Gal(b1-4)GlcNAc(b1-2)Man(a1-6)[Man(a1-3)]Man(b1-4)GlcNAc(b1-4)GlcNAc
# How it was run: as §1
# [25] = target: Neu5Ac(a2-6)Gal(b1-4)GlcNAc(b1-3)Gal(b1-3)GlcNAc
# How it was run: as §1
# [26] = target: Neu5Ac(a2-6)Gal(b1-4)GlcNAc(b1-3)Gal(b1-4)GlcNAc
# How it was run: as §1
# [27] = target: Neu5Ac(a2-6)Gal(b1-4)GlcNAc(b1-3)Gal(b1-4)GlcNAc(b1-3)Gal(b1-4)GlcNAc
# How it was run: as §1
# [28] = target: Neu5Ac(a2-6)Gal(b1-4)GlcNAc(b1-3)Gal(b1-4)[Fuc(a1-3)]GlcNAc(b1-3)Gal(b1-4)[Fuc(a1-3)]GlcNAc
# How it was run: as §1
# [29] = target: Neu5Ac(a2-6)Gal(b1-4)GlcNAc(b1-3)GalNAc
# How it was run: as §1
# [30] = target: Neu5Ac(a2-6)Gal(b1-4)GlcNAc6S
# How it was run: as §1
# [31] = target: Neu5Ac(a2-6)GalNAc
# How it was run: as §1
# [32] = target: Neu5Ac(a2-6)GalNAc(b1-4)GlcNAc
# How it was run: as §1
# [33] = target: Neu5Ac(a2-6)GlcNAc(b1-4)GlcNAc
# How it was run: as §1
# [34] = target: Neu5Ac(a2-6)GlcNAc(b1-4)GlcNAc(b1-4)GlcNAc
# How it was run: as §1
# [35] = target: Neu5Ac(a2-8)Neu5Ac
# How it was run: as §1
# [36] = target: Neu5Ac(a2-8)Neu5Ac(a2-3)Gal(b1-4)Glc
# How it was run: as §1
# [37] = target: Neu5Ac(a2-8)Neu5Ac(a2-3)[GalNAc(b1-4)]Gal(b1-4)Glc
# How it was run: as §1
# [38] = target: Neu5Ac(a2-8)Neu5Ac(a2-8)Neu5Ac
# How it was run: as §1
# [39] = target: Neu5Ac(a2-8)Neu5Ac(a2-8)Neu5Ac(a2-3)Gal(b1-4)Glc
# How it was run: as §1
# [40] = target: Neu5Ac(a2-8)Neu5Ac(a2-8)Neu5Ac(a2-3)[GalNAc(b1-4)]Gal(b1-4)Glc
# How it was run: as §1
# [41] = target: Neu5Ac(a2-8)Neu5Ac(a2-8)Neu5Ac(a2-8)Neu5Ac(a2-3)[GalNAc(b1-4)]Gal(b1-4)Glc
# How it was run: as §1
# [42] = target: Neu5Ac(b2-6)Gal(b1-4)GlcNAc
# How it was run: as §1
# [43] = target: Neu5Ac(b2-6)GalNAc
# How it was run: as §1
# [44] = target: Neu5Ac9Ac(a2-3)Gal(b1-3)GlcNAc
# How it was run: as §1
# [45] = target: Neu5Ac9Ac(a2-3)Gal(b1-4)GlcNAc
# How it was run: as §1
# [46] = target: Neu5Ac9Ac(a2-6)Gal(b1-4)GlcNAc
# How it was run: as §1
# [47] = target: Neu5Gc(a2-3)Gal(b1-3)GlcNAc
# How it was run: as §1
# [48] = target: Neu5Gc(a2-3)Gal(b1-3)[Fuc(a1-4)]GlcNAc
# How it was run: as §1
# [49] = target: Neu5Gc(a2-3)Gal(b1-4)Glc
# How it was run: as §1
# [50] = target: Neu5Gc(a2-3)Gal(b1-4)GlcNAc
# How it was run: as §1
# [51] = target: Neu5Gc(a2-3)Gal(b1-4)[Fuc(a1-3)]GlcNAc
# How it was run: as §1
# [52] = target: Neu5Gc(a2-6)Gal(b1-4)GlcNAc
# How it was run: as §1
# [53] = target: Neu5Gc(a2-6)GalNAc
# How it was run: as §1
# [54] = target: Neu5Gc(b2-6)Gal(b1-4)GlcNAc
# How it was run: as §1
binder,measurement,setting,value
"Sialidase (Vibrio cholerae), P37060 (protein) GAMALFDYNATGDTEFDSPAKQGWMQDNTNNGSGVLTNADGMPAWLVQGIGGRAQWTYSLSTNQHAQASSFGWRMTTEMKVLSGGMITNYYANGTQRVLPIISLDSSGNLVVEFEGQTGRTVLATGTAATEYHKFELVFLPGSNPSASFYFDGKLIRDNIQPTASKQNMIVWGNGSSNTDGVAAYRDIKFEIQGDALNGSMALFDYNATGDTEFDSPAKQGWMQDNTNNGSGVLTNADGMPAWLVQGIGGRAQWTYSLSTNQHAQASSFGWRMTTEMKVLSGGMITNYYANGTQRVLPIISLDSSGNLVVEFEGQTGRTVLATGTAATEYHKFELVFLPGSNPSASFYFDGKLIRDNIQPTASKQNMIVWGNGSSNTDGVAAYRDIKFEIQGDLQALGMALFDYNATGDTEFDSPAKQGWMQDNTNNGSGVLTNADGMPAWLVQGIGGRAQWTYSLSTNQHAQASSFGWRMTTEMKVLSGGMITNYYANGTQRVLPIISLDSSGNLVVEFEGQTGRTVLATGTAATEYHKFELVFLPGSNPSASFYFDGKLIRDNIQPTASKQNMIVWGNGSSNTDGVAAYRDIKFEIQGD",glycan array binding signal (z-score),[1],1.7
same,glycan array binding signal (z-score),[2],0.504
same,glycan array binding signal (z-score),[3],0.955
same,glycan array binding signal (z-score),[4],1.37
same,glycan array binding signal (z-score),[5],6.38
same,glycan array binding signal (z-score),[6],1.23
same,glycan array binding signal (z-score),[7],1.32
same,glycan array binding signal (z-score),[8],0.704
same,glycan array binding signal (z-score),[9],-0.052
same,glycan array binding signal (z-score),[10],-0.021
same,glycan array binding signal (z-score),[11],0.757
same,glycan array binding signal (z-score),[12],-0.247
same,glycan array binding signal (z-score),[13],-0.275
same,glycan array binding signal (z-score),[14],-0.586
same,glycan array binding signal (z-score),[15],0.537
same,glycan array binding signal (z-score),[16],0.177
same,glycan array binding signal (z-score),[17],1.19
same,glycan array binding signal (z-score),[18],1.64
same,glycan array binding signal (z-score),[19],0.457
same,glycan array binding signal (z-score),[20],0.301
same,glycan array binding signal (z-score),[21],1.84
same,glycan array binding signal (z-score),[22],0.798
same,glycan array binding signal (z-score),[23],0.626
same,glycan array binding signal (z-score),[24],1.36
same,glycan array binding signal (z-score),[25],-0.237
same,glycan array binding signal (z-score),[26],-0.66
same,glycan array binding signal (z-score),[27],1.19
same,glycan array binding signal (z-score),[28],-0.466
same,glycan array binding signal (z-score),[29],-0.516
same,glycan array binding signal (z-score),[30],-0.611
same,glycan array binding signal (z-score),[31],0.651
same,glycan array binding signal (z-score),[32],0.49
same,glycan array binding signal (z-score),[33],-0.331
same,glycan array binding signal (z-score),[34],2.61
same,glycan array binding signal (z-score),[35],1.72
same,glycan array binding signal (z-score),[36],1.18
same,glycan array binding signal (z-score),[37],-0.257
same,glycan array binding signal (z-score),[38],0.113
same,glycan array binding signal (z-score),[39],-0.628
same,glycan array binding signal (z-score),[40],-0.647
same,glycan array binding signal (z-score),[41],1.23
same,glycan array binding signal (z-score),[42],-0.644
same,glycan array binding signal (z-score),[43],0.272
same,glycan array binding signal (z-score),[44],1.17
same,glycan array binding signal (z-score),[45],0.147
same,glycan array binding signal (z-score),[46],0.26
same,glycan array binding signal (z-score),[47],-0.668
same,glycan array binding signal (z-score),[48],-0.58
same,glycan array binding signal (z-score),[49],0.129
same,glycan array binding signal (z-score),[50],-0.649
same,glycan array binding signal (z-score),[51],-0.397
same,glycan array binding signal (z-score),[52],-0.14
same,glycan array binding signal (z-score),[53],-0.564
same,glycan array binding signal (z-score),[54],-0.088
